Results as given in patent US20060003399A1, “High throughput actin polymerization assay” (Cytokinetics, Inc., priority 2004, published 2006).

B1: GST-105WASP: fusion protein with WASP deletion mutant domain (SEQ ID NO:18) (protein)
chain: [letters of about 200 residues left out]SDLVPRPWSNQTSLYKKAGSAAAPFTENLYFQGLVYSTPTPFFHTFAGDDCQAGLNFADEDEAQAFRALVQEKIQKRNQRQSGDRRQLPPPPTPANEERRGGLPPLPLHPGGDQGGPPVGPLSLGLATVDIQNPDITSSRYRGLPAPGPSPADKKRSGKKKISKADIGAPSGFKHVSHVGWDPQNGFDVNNLDPDLRSLFSRAGISEAQLTDAETSKLIYDFIEDQGGLEAVRQEMRRQEPLPPPPPPSRGGNQLPRPPIVGGNKGRSGPLPPVPLGIAPPPPTPRGPPPPGRGGPPPPPPPATGRSGPLPPPPPGAGGPPMPPPPPPPPPPPSSGNGPAPPPLPPALVPAGGLAPGGGRGALLDQIRQGIQLNKTPGAPESSALQPPPQSSEGLVGALMHVMQKRSRAIHSSDEGEDQAGDEDEDDEWDD
modifications: GST-105WASP fusion protein
B2: GST-tev-98N-WASP: fusion protein with N-WASP deletion mutant domain (SEQ ID NO:22) (protein)
chain: [letters of about 200 residues left out]SDLVPRPWSNQTSLYKKAGSAAAPFTENLYFQGLVYSTPTPFFHTFAGDDCQAGLNFADEDEAQAFRALVQEKIQKRNQRQSGDRRQLPPPPTPANEERRGGLPPLPLHPGGDQGGPPVGPLSLGLATVDIQNPDITSSRYRGLPAPGPSPADKKRSGKKKISKADIGAPSGFKHVSHVGWDPQNGFDVNNLDPDLRSLFSRAGISEAQLTDAETSKLIYDFIEDQGGLEAVRQEMRRQEPLPPPPPPSRGGNQLPRPPIVGGNKGRSGPLPPVPLGIAPPPPTPRGPPPPGRGGPPPPPPPATGRSGPLPPPPPGAGGPPMPPPPPPPPPPPSSGNGPAPPPLPPALVPAGGLAPGGGRGALLDQIRQGIQLNKTPGAPESSALQPPPQSSEGLVGALMHVMQKRSRAIHSSDEGEDQAGDEDEDDEWDD
modifications: GST-tev-98N-WASP fusion protein

Target: Arp2/3
Test: Activities of WASP/N-WASP proteins (Table 4)
Type: biochemical
Excerpt: The term “variant” or “analogue” generally refers to proteins that are functional equivalents to a native sequence that have similar amino acid sequences and retain, to some extent, one of the activities of the corresponding native protein. Variants/analogues include fragments that retain one or more activities of the corresponding native protein. Examples of WASP and N-WASP activity include, but are not limited to, capacity to: 1) bind Arp2/3 and actin; 2) activate the actin nucleation activity of Arp2/3 (descriptions of assays to detect nucleation activity are provided below); 3) bind an upstream regulator; 4) be regulated by one or more upstream regulators, thereby rendering the WASP or N-WASP protein able to activate the nucleation activity of Arp2/3; and 5) bind downstream regulators initiating signal transduction cascades. Some of the WASP and N-WASP proteins that are provided are able to recapitulate the full activity of WASP or N-WASP, which means that these proteins have all five of the activities just listed. […]
A third class of NPF proteins that can be utilized in some assays include WASP, N-WASP and SCAR proteins that include the WH1 domain but in which the PolyPro region is (e.g., deleted). A fourth class of NPF proteins that can be utilized in some assays are WASP, N-WASP and SCAR deletion mutants in which the PolyPro region is maintained but an N-terminal region (e.g., WH1 domain) is at least partially removed. Some proteins in this class are ones that include the B, CRIB/GBD (WASP and N-WASP), PolyPro and VCA domains, but in which some or all of the WH1 has been removed. One specific example is 98N-WASP, which includes amino acids 98-501 of SEQ ID NO:4. Another specific example is the 105WASP protein, which includes amino acids 105-501 of SEQ ID NO:2 (see FIG. 4B).
As indicated in this table, specific examples of fusion proteins that can be utilized include those that include a segment that encodes full-length WASP or N-WASP, including: Myc-WASP-TAP (SEQ ID NO:14); and Myc-N-WASP-TAP (SEQ ID NO: 16). Examples of fusion proteins that include a WASP or N-WASP deletion mutant domain include: GST-105WASP (SEQ ID NO:18); Myc-105WASP-TAP (SEQ ID NO:20); GST-tev-98N-WASP (SEQ ID NO:22); and Myc-98N-WASP-TAP (SEQ ID NO:24). The TAP tag in these particular fusion proteins has the general structure CBP-tev-ProtA (SEQ ID NO:36). Fusion proteins such as those listed in Table 4 can in some instances be utilized directly, or after one or both of the C- and N-terminal tags are removed. For example, the fusion proteins listed in Table 4 as having a TAP tag can be used once the TAP tag has been cleaved off and/or after the C-terminal tag has been removed.

Molecule	Activate Arp2/3?	Regulated By Which Upstream Regulators?
B1	Yes	Cdc42, PIP2, Nck and Rac1
B2	Yes	Cdc42, PIP2, Nck and Rac1
